# Values quoted from earlier work as cited in article PMC11006913.
# This is one part of the list.
# How the values were obtained:
# [1] = target: PROP1 R112Q (Homo sapiens) (UniProt O75360); settings: PBM; conditions not shown; double strand, one strand shown; scale: upbm affinity estimate (log intensity, higher = more binding, comparable within an allelic series)
# [2] = target: PROP1 R99Q (Homo sapiens) (UniProt O75360); settings: PBM; conditions not shown; double strand, one strand shown; scale: upbm affinity estimate (log intensity, higher = more binding, comparable within an allelic series)
sequence,measurement,setting,value
CGGGCCCA [8-mer CGGGCCCA],binding signal,[1],10.9
same,binding signal,[2],10.9
CGGCCGTC [8-mer CGGCCGTC],binding signal,[1],11
same,binding signal,[2],11
GCGGTCCC [8-mer GCGGTCCC],binding signal,[1],10.8
same,binding signal,[2],10.9
CGGCGCGA [8-mer CGGCGCGA],binding signal,[1],11
same,binding signal,[2],11
CCGCCGGA [8-mer CCGCCGGA],binding signal,[1],10.8
same,binding signal,[2],10.9
AATCAATG [8-mer AATCAATG],binding signal,[1],12.2
same,binding signal,[2],11.7
AAGCCGGC [8-mer AAGCCGGC],binding signal,[1],10.9
same,binding signal,[2],10.9
CTAATTCA [8-mer CTAATTCA],binding signal,[1],12.3
same,binding signal,[2],11.8
AGTCGCCC [8-mer AGTCGCCC],binding signal,[1],11
same,binding signal,[2],11
AATTGGAC [8-mer AATTGGAC],binding signal,[1],12.3
same,binding signal,[2],11.8
CTGGCCCC [8-mer CTGGCCCC],binding signal,[1],10.8
same,binding signal,[2],10.9
CCCACGAC [8-mer CCCACGAC],binding signal,[1],10.9
same,binding signal,[2],11
AGGTGGGG [8-mer AGGTGGGG],binding signal,[1],10.9
same,binding signal,[2],11
CCGGCTCG [8-mer CCGGCTCG],binding signal,[1],10.8
same,binding signal,[2],10.8
ACAGCGCG [8-mer ACAGCGCG],binding signal,[1],10.9
same,binding signal,[2],11
CAGGCGCC [8-mer CAGGCGCC],binding signal,[1],10.9
same,binding signal,[2],11
GGGACGAA [8-mer GGGACGAA],binding signal,[1],11
same,binding signal,[2],11
AAGGCCCG [8-mer AAGGCCCG],binding signal,[1],10.8
same,binding signal,[2],10.8
AATCTAAT [8-mer AATCTAAT],binding signal,[1],12.4
same,binding signal,[2],11.9
GCGTCCCA [8-mer GCGTCCCA],binding signal,[1],10.8
same,binding signal,[2],10.9
GGAACCCC [8-mer GGAACCCC],binding signal,[1],10.9
same,binding signal,[2],10.9
AGCTTAAT [8-mer AGCTTAAT],binding signal,[1],12.3
same,binding signal,[2],11.8
